Experimental data published in PubChem BioAssay AID686978 (National Center for Advancing Translational Sciences (NCATS), 2013).
Where “and” joins values, the source holds several entries; their conditions need not be identical. Identical values can stand only once. Among all 420,000 compounds or so, about 64,000 (15%) were called active. This list was built around the results that the source calls inconclusive (neither active nor inactive); the mix of calls is not that of the screen. Calls follow the shape of the dose curve; as a rule, active = well fitted inhibition curve with a large enough effect; inconclusive = small, poorly fitted or top-dose-only effect; inactive = flat fitted curve, though single readings scatter. A potency beside an inconclusive call is a rough fit, not a confirmed value.

experiment: qHTS for Inhibitors of human tyrosyl-DNA phosphodiesterase 1 (TDP1): qHTS in cells in absence of CPT; details: DT40 Tdp1-/- hTDP1 cells, no CPT, ATP luminescence, 48 h; activity change, negative = growth inhibition: at 46.2 µM (top of the series) unless noted; also: nearly all actives have a fitted effect of over 55% in size
How it was run: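 Growth of hTDP1-complemented DT40 Tdp1-knockout cells is measured by ATP luminescence after at least 48 hr compound exposure at 37 °C, with DMSO substituting for the 20 nM CPT used in the parallel screen.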
% is scaled to controls: 0 for no effect and ±100 for the full control effect; potency is read from the fitted curve at half-maximal effect; tags tell the direction and shape of the fitted curve.

Structure (SMILES) | activity change, negative = growth inhibition | Potency
C=C1CSc2nc(=O)c3c4c(sc3n21)CCC4 | inactive: -20.3% | 
O=c1c(S(=O)(=O)c2ccccc2)cn(Cc2cccc(F)c2)c2cc(N3CCOCC3)c(F)cc12 |  | active: 23.1 µM
CCc1ccc(S(=O)(=O)c2cn(C)c3cc(N4CCC(C)CC4)c(F)cc3c2=O)cc1 |  | active: 14.6 µM
COC(=O)C(/C=N/OCc1ccc([N+](=O)[O-])cc1)NC(=O)c1cccc(Cl)c1 (stereo not given) | inactive: -6.58% | 
Cc1cc(C)c(C(=O)Nc2ccc3c(c2)OCCO3)c(C)c1 |  | inconclusive: 29.1 µM [inhibitor, single point]
CCn1cc(CCCC(=O)NCc2ccccc2OC)c2ccccc21 |  | inconclusive: 29.1 µM [inhibitor, single point]
Cn1cccc1C(=O)N1CCC2(CC1)CN(c1ccccn1)C2 |  | inconclusive: 23.1 µM [inhibitor, single point]
COc1ccc(N(C(=O)c2csnn2)C(C(=O)NC2CCCC2)c2ccccc2)cc1 (stereo not given) | inactive: -27.6% | 
COc1cccc(CN2CCC(C(=O)Nc3ccc(-c4cccc(C)c4)cc3)CC2)c1O |  | active: 16.4 µM
Cc1nc2ccc([N+](=O)[O-])cc2c(=O)n1Cc1ccc(Br)cc1 |  | inconclusive: 25.9 µM [inhibitor, single point]
COc1ccc(C)cc1NC(=O)c1nnn(Cc2cccc(C(F)(F)F)c2)c1N | inactive: -21.2% | 
COc1cccc(CNC(=O)c2cc(S(=O)(=O)N3CCCCC3)cn2C)c1 | inconclusive: -30.9% [inhibitor] | 
CC(NC(=O)c1ccc(CS(=O)(=O)c2ccc(Cl)cc2)o1)c1ccc2c(c1)OCCO2 (stereo not given) |  | inconclusive: 25.9 µM [inhibitor, partial curve, poor fit]
C=C(C)C(=O)NNc1ccccc1 |  | active: 7.31 µM
COc1ccc(CNC(=O)CN2C(=O)CSc3ccc(S(=O)(=O)N4CCOCC4)cc32)c(OC)c1 |  | inactive
O=C(CCS(=O)(=O)c1ccc(Br)cc1)NC1CCCCCC1 | inconclusive: -30.9% [inhibitor] | 
Cn1ncc(Br)c1C(=O)NCc1cccs1 |  | inconclusive: 1.03 µM [inhibitor, partial curve]
COc1cccc(C2CNC3(CCCC(C)C3)c3[nH]c4ccccc4c32)c1OC (stereo not given) |  | active: 23.1 µM
Cc1nc2ccc(S(=O)(=O)N(C)CC(=O)NC(C)c3ccccc3)cc2s1 (stereo not given) | inactive: 3.67% | 
CCOc1ccc(OCc2ccc(C(=O)NC(C)(C)C)o2)cc1 |  | inconclusive: 20.6 µM [inhibitor, single point]
O=C(Nc1cccnc1)C1CCN(S(=O)(=O)c2ccc(Cl)cc2)CC1 | inactive: -18.1% | 
COc1ccc2oc(C(=O)OCC(=O)NCc3ccccc3OC)c(C)c2c1 | inconclusive: -31.3% [inhibitor] | 
O=C(c1ccc(OC2CCN(C/C=C/c3ccc(F)cc3)CC2)cc1)N1CCCCC1 |  | inconclusive: 29.1 µM [inhibitor, single point]

Structure (SMILES) | activity change, negative = growth inhibition | Potency
CCOc1ccc(-c2nnc(N3CCCCC3)c3ccccc23)cc1 |  | active: 16.4 µM
COC(=O)c1ccc(Cl)c(-c2ccc(/C=N/NC(=O)Nc3ccccc3)o2)c1 |  | inconclusive: 23.1 µM [inhibitor, partial curve, poor fit]
COc1ccc(C2CC(c3ccccc3)=NN2C(=O)CN2CCN(Cc3ccccc3)CC2)cc1 (stereo not given) |  | active: 25.9 µM
Nc1ccccc1SCc1csc(-c2ccc(Cl)cc2)n1 |  | inconclusive: 7.31 µM [inhibitor, partial curve]
CC(=O)Nc1ccc(NC(=O)CSc2nc3ccccc3nc2N2CCC(C)CC2)cc1 |  | inconclusive: 16.4 µM [inhibitor, partial curve] and inconclusive: 11.6 µM [inhibitor, partial curve]
COC(=O)C[C@H]1CC[C@@H](NS(=O)(=O)c2ccccc2)[C@@H](CO)O1 | inactive: 7.39% | 
O=C(Nc1ccc(Cl)cc1)Nc1nnc(CSCc2ccccc2)s1 |  | active: 18.4 µM
CCOC(=O)C1=C(C)NC(C)=C(C(=O)OCC)C1C(=O)OCC(=O)NCc1ccccc1 |  | inconclusive: 25.9 µM [inhibitor, single point]
COc1ccc(CCN(C)C(=O)c2cc(S(=O)(=O)NCc3ccccc3)ccc2C)cc1OC |  | inconclusive: 29.1 µM [inhibitor, single point]
COc1ccc(NC(=O)/C(=C\c2cccs2)NC(=O)c2ccco2)cc1 |  | inconclusive: 29.1 µM [inhibitor, single point]
COc1ccccc1C(CNC(=S)NCc1ccccc1)N1CCCC1 (stereo not given) | inconclusive: -33.5% [inhibitor] | 
Cc1nc(Cc2nnc(SCC(=O)N3CCN(c4ccccc4)CC3)o2)cs1 | inactive: -0.791% | 
CC(C)C(C)(C#N)NC(=O)CSc1nc2scc(-c3ccco3)c2c(=O)n1-c1ccccc1 (stereo not given) |  | inconclusive: 32.6 µM [inhibitor, single point]
O=C(O)c1ccc(/C=N/n2c(C3CCCCC3)n[nH]c2=S)cc1 | inactive: 5.39% | 
O=C(c1cccs1)N1N=C(c2ccccc2)CC1c1ccc(O)cc1 (stereo not given) |  | inconclusive: 20.6 µM [inhibitor, single point]
CC1CCCC(C)N1C(=O)CSc1nnc(COc2ccc(F)cc2)o1 (stereo not given) |  | inconclusive: 18.4 µM [inhibitor, single point]
Cc1cc(C)c(NC(=S)NC(=O)c2ccc(-c3ccccc3)cc2)c(C)c1 |  | active: 20.6 µM
Cc1ccc2nc(N(Cc3cccnc3)C(=O)CCS(=O)(=O)c3ccccc3)sc2c1 |  | active: 16.4 µM
COc1ccc(NC2=Nc3ccccc3N3C2=Nc2c(c(C)nn2-c2ccc(C)cc2)C3c2cccnc2)cc1 (stereo not given) |  | inconclusive: 29.1 µM [inhibitor, single point]
Cc1cc(C)c(NS(=O)(=O)c2ccccc2)c(C)c1NS(=O)(=O)c1ccccc1 | inconclusive: -32.6% [inhibitor] | 
O=C(CN1CCN(c2ccccc2)CC1)N1CCN(c2ccccc2)CC1 |  | inconclusive: 18.4 µM [inhibitor, partial curve]
Nc1nonc1-n1nnc(C(=O)N/N=C/c2ccc(OCc3ccc(F)cc3)cc2)c1COc1ccccc1 |  | inconclusive: 29.1 µM [inhibitor, single point]
